The values that follow come from US20200325209A1 (CSL, published 2020).

A word on the Kd: it is the concentration at which binding is half-saturated. A word on the koff: it is the rate constant with which the complex falls apart. The term kon denotes a measure of how fast the partners come together.

For test [1], the target named is T1, human neonatal Fc receptor FcRn/β2m, soluble recombinant (human, UniProt P55899 part only; P61769 part only, alexa-488 label (Examples 2-4); minimal chemical biotinylation with Sulfo-NHS-LC-LC-Biotin (Examples 5-6)).
T1 construct: Heterodimer; extracellular domain is inferred; also called hFcRn/β2M; hsFcRn
T1 sequence (P55899 24-297 limits assumed, chain 1 of 2): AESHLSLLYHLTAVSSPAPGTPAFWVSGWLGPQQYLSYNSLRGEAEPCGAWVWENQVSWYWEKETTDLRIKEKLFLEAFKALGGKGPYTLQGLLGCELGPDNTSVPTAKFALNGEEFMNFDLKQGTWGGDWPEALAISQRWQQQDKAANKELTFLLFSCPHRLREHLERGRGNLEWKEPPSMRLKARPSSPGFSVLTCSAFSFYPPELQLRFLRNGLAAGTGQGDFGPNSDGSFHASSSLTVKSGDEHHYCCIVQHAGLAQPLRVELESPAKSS
T1 sequence (P61769 21-119 limits assumed, chain 2 of 2, further chain): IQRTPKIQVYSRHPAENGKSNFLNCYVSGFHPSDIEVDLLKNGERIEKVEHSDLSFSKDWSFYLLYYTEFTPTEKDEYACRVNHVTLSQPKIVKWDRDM
The test is described as follows: SPR, FcRn over immobilised HSA, pH 6.0, 1:1 model. As to the method: (§1) Spot 3 of each flow cell was activated/deactivated and used for reference subtraction. The flow rate of FcRn/β2m was kept constant at 30 μL/min
(§2) A concentration range of 2 to 0.007 μM (pH6.0) and 20 to 0.078 μM (pH7.3) was used and association and dissociation phases were monitored for 180 and 600 seconds respectively.
(§3) Regeneration of the surface was performed as previously described.
For orientation: Surface plasmon resonance follows binding to a sensor surface in real time, without labels.

Test [2] deals with T2, cynomolgus monkey FcRn/β2m, soluble recombinant (cynomolgus monkey, UniProt Q8SPV9 24-297; Q8SPW0 21-119).
T2 construct: Extracellular domain inferred from 'soluble'; also called cynoFcRn; cyno FcRn/β2m
T2 sequence (Q8SPV9 24-297 limits assumed, chain 1 of 2): as the sequence (P55899 24-297 limits assumed, chain 1 of 2) above, with N39D, E44Q, G99S, S189G, S190N, L217M, S269T counted along it
T2 sequence (Q8SPW0 21-119 limits assumed, chain 2 of 2, further chain): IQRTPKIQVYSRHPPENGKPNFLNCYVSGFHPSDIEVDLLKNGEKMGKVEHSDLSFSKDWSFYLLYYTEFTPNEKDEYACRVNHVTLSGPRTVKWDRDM
The test is described as follows: SPR, FcRn over immobilised HSA, pH 6.0, 1:1 model. As to the method: as §1, §2, §3

Test [3] concerns the target T1, human neonatal Fc receptor FcRn/β2m, …. In words: SPR, FcRn over immobilised HSA, pH 7.3, steady state. As to the method: as §1, §2, §3
For test [4], the target named is T2, cynomolgus monkey FcRn/β2m, soluble …. Described as above. As to the method:
as §1, §2, §3

Test [5] addresses T1, human neonatal Fc receptor FcRn/β2m, …. The test is described as follows: SPR Biacore 8000, HSA over biotinylated hFcRn/β2M on streptavidin chip, pH 6.0, 37 C.
For test [6], the target named is T3, mouse FcRn/β2m, soluble recombinant (mouse, UniProt Q61559 22-297; P01887 21-119).
T3 construct: Extracellular domain inferred from 'soluble'; also called murineFcRn; murine FcRn/β2m
T3 sequence (looked up): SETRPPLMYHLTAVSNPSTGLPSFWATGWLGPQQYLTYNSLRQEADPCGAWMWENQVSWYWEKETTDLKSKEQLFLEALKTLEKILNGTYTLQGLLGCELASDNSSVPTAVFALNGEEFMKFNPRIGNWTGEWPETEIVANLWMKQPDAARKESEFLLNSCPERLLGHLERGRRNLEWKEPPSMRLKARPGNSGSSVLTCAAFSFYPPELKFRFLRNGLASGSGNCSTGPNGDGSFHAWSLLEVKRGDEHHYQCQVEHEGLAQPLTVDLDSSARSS
T3 sequence (b2m, looked up): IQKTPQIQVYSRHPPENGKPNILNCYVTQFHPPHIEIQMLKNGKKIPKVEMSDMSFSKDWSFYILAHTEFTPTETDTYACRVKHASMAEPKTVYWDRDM
In words: SPR, FcRn over immobilised HSA, pH 6.0.

Test [7] concerns the target T1, human neonatal Fc receptor FcRn/β2m, …. In words: SPR Biacore 4000, HSA over biotinylated hFcRn/β2M on streptavidin chip, pH 6.0, 37 C.
Test [8] concerns the target T4, rat FcRn/β2m, soluble recombinant (rat, UniProt P13599 23-298; P07151 21-119).
T4 construct: Extracellular domain inferred from 'soluble'
T4 sequence (looked up): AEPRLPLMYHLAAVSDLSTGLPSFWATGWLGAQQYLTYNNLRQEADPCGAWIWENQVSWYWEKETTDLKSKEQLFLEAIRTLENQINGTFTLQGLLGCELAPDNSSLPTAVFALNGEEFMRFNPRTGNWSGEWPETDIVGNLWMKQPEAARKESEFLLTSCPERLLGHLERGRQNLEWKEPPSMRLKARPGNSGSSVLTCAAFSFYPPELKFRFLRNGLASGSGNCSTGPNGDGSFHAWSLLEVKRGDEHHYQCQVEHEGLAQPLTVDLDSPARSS
T4 sequence (b2m, looked up): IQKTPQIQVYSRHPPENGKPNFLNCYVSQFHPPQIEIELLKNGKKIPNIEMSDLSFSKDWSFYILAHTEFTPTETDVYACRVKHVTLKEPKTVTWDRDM
The test is described as follows: SPR, FcRn over immobilised HSA, pH 6.0, 1:1 model; pH 6.0. As to the method:
as §1, §2, §3

B1: HSA [Q522L/A552V/G572R], soluble (other)
chain: DAHKSEVAHRFKDLGEENFKALVLIAFAQYLQQCPFEDHVKLVNEVTEFAKTCVADESAENCDKSLHTLFGDKLCTVATLRETYGEMADCCAKQEPERNECFLQHKDDNPNLPRLVRPEVDVMCTAFHDNEETFLKKYLYEIARRHPYFYAPELLFFAKRYKAAFTECCQAADKAACLLPKLDELR[gap - about 200 residues]NLIKQNCELFEQLGEYKFQNALLVRYTKKVPQVSTPTLVEVSRNLGKVGSKCCKHPEAKRMPCAEDYLSVVLNQLCVLHEKTPVSDRVTKCCTESLVNRRPCFSALEVDETYVPKEFNAETFTFHADICTLSEKERLIKKQTALVELVKHKPKATKEQLKAVMDDFVAFVEKCCKADDKETCFAEERKKLVAASQAALGL
notes: also called triple HSA variant
Consider B1, for which the Kd in test [1] came out at 16.9 nM; in test [2] it was 24.5 nM; in test [3], 16100 nM; in test [4], 7600 nM; in test [5], 25 nM; in test [7], 41 nM. For the same molecule, in test [8], the Kd came to 2250 nM. The koff worked out at 0.00176 s⁻¹ in test [5] and 0.0014 s⁻¹ in test [7]. For the same molecule, the kon was determined as 70100 M⁻¹ s⁻¹ in test [5] and 34200 M⁻¹ s⁻¹ in test [7]. For the same molecule, the binding result in test [6] is listed as “no binding (tested: 2 µM)”.
